Molecular target: T1, Human GITR (Acro Biosystems, #GIR-H5228) (human, UniProt Q9Y5U5 26-161)
T1 construct: Bought recombinant protein, amine-coupled to the sensor tips; also called hGITR
T1 sequence: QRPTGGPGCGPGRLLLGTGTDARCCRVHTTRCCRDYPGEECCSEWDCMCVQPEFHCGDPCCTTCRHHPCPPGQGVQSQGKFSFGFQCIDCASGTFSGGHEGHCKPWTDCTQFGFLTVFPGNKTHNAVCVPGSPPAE
Assay: BLI (Octet RED96), GITR amine-coupled to AR2G tips, bispecific as analyte, 1:1 fit

B1: GITR/CTLA-4 bispecific antibody 2396/2397 (bispecific antibody)
VH: [left out - about 100 residues]AYPVHGYWVFDYWGQGTLVTVSS
light: [left out - about 200 residues]SGGGGSGGGGSAPLKIQAYFNETADLPCQFANSQNLSLSELVVFWQDQENLVLNEVYLGKERFDSVDSKYMGRTSFDSDSWTLRLHNLQIKDKGRYQCIIHHKKPTGMINIHQMNSELSVLA
- Kd: 0.673 nM
- koff: 0.000146 s⁻¹
- kon: 217000 M⁻¹ s⁻¹

— patent US20190309084A1 (ALLIGATOR BIOSCIENCE, published 2019)
